From US11365205B2 (Aurigene Discovery Technologies Limited, priority 2018, dated 2022) come the findings set out here.

What is called pIC50 is the negative decadic logarithm of the IC50, by convention in mol/L.

pIC50: −log10 of the molar value.

For the experiment, the target named is PRMT5/MEP50 Complex (Homo sapiens (Human), UniProt O14744). Kind of experiment: PRMT5 inhibition based on TR-FRET assay. The experiment is classed as biochemical. As to conditions: 32 nM PRMT5:MEP50, 50 nM Histone-H4 peptide, 1 μM SAM. The source says: PRMT5 Inhibition Based on TR-FRET Assay:
Protein arginine methyltransferase 5 (PRMT5) is a type II arginine methyltransferase that catalyze mono- and symmetric demethylation on arginine residues of histone or non-histone proteins in presence of S-adenosylmethionine (AdoMet or SAM) a cofactor responsible for donating the methyl group. PRMT5 is reported to be overexpressed in several human cancers. To identify compounds that inhibit the PRMT5 and decrease its activity, a TR-FRET based assay has been established. Time-resolved fluorescence resonance energy transfer (TR-FRET) HTS assays are homogeneous proximity assays where the interaction of two dye-labeled binding partners is detected by the energy transfer between a donor and an acceptor dye and the subsequent light emission by the acceptor dye. PRMT5 catalyzes Histone H4 peptide which is biotin tagged to the Lysine amino acid at carboxyl end, in presence of S-adenosyl-1-methionine (SAM) to methylate the peptide. The antibody specific to mono methylated H4 peptide (H4R3) with Ig conjugate binds to the methylated peptide, indirectly binding to the Europium lanthanide. […]
The compound dilutions were prepared as 7.5% DMSO stock solutions in assay buffer. […] The plates were then read on Victor-3 with Excitation at 340 nm and Emissions collected at 615 and 665 nm in TR-FRET protocol. […]
A general note: TR-FRET usually uses a lanthanide donor and a delayed reading to cut background.

UniProt O14744, sequence (O14744 whole entry): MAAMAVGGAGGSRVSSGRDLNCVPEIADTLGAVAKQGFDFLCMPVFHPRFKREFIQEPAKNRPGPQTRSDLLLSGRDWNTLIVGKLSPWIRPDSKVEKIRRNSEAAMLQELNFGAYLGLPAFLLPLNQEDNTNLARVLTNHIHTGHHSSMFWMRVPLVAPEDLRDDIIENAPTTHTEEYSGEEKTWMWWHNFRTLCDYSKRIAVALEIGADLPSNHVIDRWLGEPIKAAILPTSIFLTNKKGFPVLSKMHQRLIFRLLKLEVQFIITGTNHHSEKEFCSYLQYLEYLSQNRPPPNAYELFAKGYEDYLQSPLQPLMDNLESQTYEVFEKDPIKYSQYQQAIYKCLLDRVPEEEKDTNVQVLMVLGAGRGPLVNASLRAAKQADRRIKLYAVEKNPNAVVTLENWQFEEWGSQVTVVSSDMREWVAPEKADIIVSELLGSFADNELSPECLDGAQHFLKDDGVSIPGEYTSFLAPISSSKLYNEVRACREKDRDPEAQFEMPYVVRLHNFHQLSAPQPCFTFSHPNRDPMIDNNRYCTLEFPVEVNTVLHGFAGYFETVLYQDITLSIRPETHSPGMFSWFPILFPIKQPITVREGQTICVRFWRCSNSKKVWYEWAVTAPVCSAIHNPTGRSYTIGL
UniProt O14744, sequence (Q9BQA1 whole entry partner): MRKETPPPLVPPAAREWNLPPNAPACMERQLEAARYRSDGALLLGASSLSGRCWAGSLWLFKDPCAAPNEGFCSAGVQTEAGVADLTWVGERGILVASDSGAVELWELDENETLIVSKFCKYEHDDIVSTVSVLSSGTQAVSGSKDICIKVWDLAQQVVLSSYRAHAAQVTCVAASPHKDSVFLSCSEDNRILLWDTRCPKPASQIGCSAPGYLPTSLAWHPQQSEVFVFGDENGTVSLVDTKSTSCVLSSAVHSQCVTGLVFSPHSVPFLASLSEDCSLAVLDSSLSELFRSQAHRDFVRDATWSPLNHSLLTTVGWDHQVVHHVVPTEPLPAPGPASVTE

For `COc1ccc(CN2CCN(CC(O)CN3CCc4ccccc4C3)C2=O)cn1` (centres unmarked) [Example 13, 1-(3-(3,4-dihydroisoquinolin-2(1H)-yl)-2-hydroxypropyl)-3-((6-methoxypyridin-3-yl)methyl)imidazolidin-2-one], the pIC50 is 6.49.
With `CC1(C)CN(CC(O)CN2CCc3ccccc3C2)C(=O)N1Cc1ccc(C#N)cc1` (centres unmarked) [Example 14, 4-((3-(3-(3,4-Dihydroisoquinolin-2(1H)-yl)-2-hydroxypropyl)-5,5-dimethyl-2-oxoimidazolidin-1-yl)methyl)benzonitrile], the negative-log IC50 (pIC50) was 6.80.
